Experimental data: PMC12040169 (PLOS Biology, 2025)
This is one part of the list.

Test system: T1, C. trachomatis L2/434/Bu expressing GFP (CTL2-GFP)
T1 construct: L2/434/Bu GFP intracellular growth in HeLa cells
Parameters: species or system HeLa; C. trachomatis total inclusion area by high-content imaging, normalised to DMSO
Details: total inclusion area; 28.5 h, 10 µM; inhibitor
Procedure, shortened: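 High-content images of fixed, Hoechst-stained infected cultures supply inclusion area and count (growth) plus nuclei number (viability), complementing bulk GFP/resorufin fluorescence. MIC determination is unchanged from the primary assay.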

Compared with `Brc1cn2ccnc2c(Nc2ccc3[nH]ccc3c2)n1` [CBK037449], `COc1ccc(-n2cc(-c3ccc(F)cc3)nn2)cc1OC` [CBK113110] is higher in “% of control remaining” value: 82.5184 for the first, 97.5221 for the second.

Going from `O=C(O)C1C2C=CC(O2)C1C(=O)Nc1ccc(S(=O)(=O)N2CCc3ccccc32)cc1` (stereo not drawn) [CBK268176] to `CC(=O)Nc1ccc(S(=O)(=O)N2CCN(S(=O)(=O)c3ccc(C)cc3)CC2)cc1` [CBK264276], the “% of control remaining” value rises from 80.0168 to 116.808.

First: CCCc1nn(CC(=O)OC)c(=O)c2cc3ccsc3n12 [CBK284144]
Second: COc1ccc2[nH]c(NCCCO)nc2c1 [CBK264155]
The “% of control remaining” value of the first is lower: 95.428 for the first, 117.004 for the second.

Going from `CCC(=O)N1CCN(CCNC=C2C(=O)CC(c3cccs3)CC2=O)CC1` (stereo not drawn) [CBK264817] to `CCNC(=O)C1(Cc2ccc(-c3cccs3)cc2)CCN(C(=O)Cc2ccccc2)CC1` [CBK285795], the “% of control remaining” value falls from 111.863 to 85.0969.

Compared with `COc1ccc(C(=O)Nc2ccc(N3CCN(C(=O)C(C)(C)C)CC3)cc2)cc1` [CBK270266], `COc1cc(/C=C/C(=O)NCc2ccc(C(=O)O)cc2)ccc1O` [CBK286728] is higher in “% of control remaining” value: 82.0995 for the first, 114.368 for the second.

Compared with `O=C(CC(NC(=O)c1ccccc1)c1ccccc1)Nc1cccc2ccccc12` (stereo not drawn) [CBK263901], `O=C(CSc1cccc2c(SCC(=O)c3ccccc3)cccc12)c1ccccc1` [CBK261255] is higher in “% of control remaining” value: 75.6879 for the first, 96.2243 for the second.

First: CC(NC(=O)C1CCN(CCN2C(=O)c3ccccc3C2=O)CC1)c1ccc(F)cc1 (stereo not drawn) [CBK148750]
Second: CCC(C(=O)O)c1ccc(-n2sc3ccccc3c2=O)cc1 (stereo not drawn) [CBK011773]
The “% of control remaining” value of the first is higher: 100.89 for the first, 83.9896 for the second.

First: CN1CCC(=NNC(=O)CN(c2ccc(Oc3ccccc3)cc2)S(C)(=O)=O)CC1 [CBK262338]
Second: Cc1cc(CN2CCN(S(=O)(=O)c3ccc(C(=O)c4ccccc4)cc3)CC2)cc(C)c1O [CBK062933]
The “% of control remaining” value of the first is higher: 107.363 for the first, 88.5178 for the second.

Compared with `O=C(CSc1ccc2ccccc2c1)Nc1ccc(Cl)c(C(=O)O)c1` [CBK268239], `Cc1ccc(C(=O)O)cc1NC(=O)c1cccc(C(=O)Nc2cc(C(=O)O)ccc2C)c1` [CBK262797] is higher in “% of control remaining” value: 114.746 for the first, 120.486 for the second.

Compared with `O=C(CCc1ccc(S(=O)(=O)NC2CCCCC2)cc1)Nc1ccc2c(c1)OCCO2` [CBK266845], `c1cnc(N2CCN(Cc3ccc4c(c3)OCO4)CC2)c(OC2CCCCC2)n1` [CBK082833T] is lower in “% of control remaining” value: 89.653 for the first, 80.5884 for the second.

Compared with `COc1ncc(-c2nccnc2N2CCCC2CO)c(OC)n1` (stereo not drawn) [CBK036638], `CCN1CCN(c2cc(C)nc3c(-c4ccccc4)cnn23)CC1` [CBK287793] is higher in “% of control remaining” value: 90.9068 for the first, 100.515 for the second.

First: CSc1ncc(Cl)c(C(=O)Nc2nc(-c3ccc(S(=O)(=O)N4CCOCC4)cc3)cs2)n1 [CBK269064]
Second: Cc1nc(-c2ccc(CCNC(=O)c3cc(O)nc4ccccc34)s2)cs1 [CBK297720]
The “% of control remaining” value of the first is lower: 73.0662 for the first, 109.409 for the second.

First: Cc1ccc(C=C(c2ccccc2)c2nc3sc(C(=O)O)c(C)c3c(=O)[nH]2)s1 [CBK295638]
Second: Cc1ccc(C(=O)N2CCC(Cc3ccccc3-c3ccccc3)(C(=O)N(C)C)CC2)s1 [CBK285677]
The “% of control remaining” value of the first is lower: 99.471 for the first, 109.488 for the second.

Going from `O=S(=O)(Nc1ccc(N2CCNCC2)c2ccccc12)c1ccc(Br)cc1F` [CBK200014C] to `Fc1ccccc1COc1ccccc1CNCCN1CCOCC1` [CBK278222C], the “% of control remaining” value falls from 64.9788 to 48.0794.

Going from `Nc1nc(CSc2nnc(-c3ccco3)n2-c2ccccc2)cs1` [CBK269693] to `COc1cc(C#N)ccc1Oc1nnnn1-c1ccccc1` [CBK002571], the “% of control remaining” value rises from 78.5835 to 80.6147.

Compared with `COc1ccccc1/C=C/CN(C)CCN(C)C` [CBK261888], `Fc1ccccc1CN(CCCn1ccnc1)Cc1ccco1` [CBK282952] is lower in “% of control remaining” value: 99.5409 for the first, 81.6193 for the second.

Going from `C#CCNC(=O)[C@@H]1Cc2cn(Cc3c(C)noc3C)c3cccc(c23)[C@H](CC(C)C)N1` [CBK289425] to `CC(C)(C)c1csc(C(=Cc2ccc(C#N)cc2)C(N)=O)n1` [CBK001154], the “% of control remaining” value falls from 125.039 to 91.8433.

Compared with `Cn1nccc1CN(Cc1ccc(F)cc1)Cc1cccnc1` [CBK282261], `CCn1c(=O)[nH]c(=O)c2cnc(-c3ccc(OC)cc3)nc21` [CBK291259] is lower in “% of control remaining” value: 95.2988 for the first, 73.3391 for the second.

Going from `O=C1NC(=O)C(CC(=O)N2CCC3(CCCNC3)C2)N1` (stereo not drawn) [CBK153232C] to `CCn1cncc1CN1CCN(CC2(c3ccc(C)cc3)CC2)CC1` [CBK283307], the “% of control remaining” value rises from 95.8788 to 96.4925.

In the case of `Cc1cc(C)c(OCCCN2CCCCCC2)c(Cl)c1` [CBK266026G], the “% of control remaining” value is reported as 94.9199.
